# Results from article PMC12040169 (PLOS Biology, 2025).
# Some of the results follow.
# Test system: T1, C. trachomatis L2/434/Bu expressing GFP (CTL2-GFP)
# T1 construct: L2/434/Bu GFP intracellular growth in HeLa cells
# Set-up: species or system HeLa; C. trachomatis total inclusion area by high-content imaging, normalised to DMSO
# Settings: total inclusion area; 28.5 h, 10 µM; inhibitor
# Summary of the method: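 High-content imaging followed the bulk GFP/resorufin measurement: fixed, Hoechst-stained cells were scored for GFP inclusions and host nuclei per well. Total inclusion area and count served as growth proxies, nuclei number as the viability proxy. MIC calculation matched the bulk assay.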
row,SMILES,% of control remaining
1,Clc1ccc(-c2noc(-c3ccco3)n2)cc1 [CBK026405],86.0819
2,Cc1ccc(C(=O)C2=C(O)C(=O)N(CCCn3ccnc3)C2c2cccc([N+](=O)[O-])c2)cc1 (stereo not drawn) [CBK263319],55.3403
3,CC(=O)N(C)c1ncc(Br)cc1C(=O)NCc1nc2ccccc2[nH]1 [CBK076522],109.211
4,CC1(CNC(=O)C2CC(=O)N(C3CCCCC3)C2)COC1 (stereo not drawn) [CBK281754],83.5631
5,COc1ccc(OC)c(NC(=O)CSc2nnc(-c3ccncc3)n2C)c1 [CBK266623],120.162
6,CN(C)CCCO/N=C1\CC2(CCCC2)c2ccccc21 [CBK013331],57.6164
7,Fc1ccc(Oc2nccnc2N2CCN(CC3CC3)CC2)cc1 [CBK083033T],90.4101
8,O=C(O)c1ccc(/C=N/N2CCN(Cc3ccc(Cl)cc3)CC2)cc1 [CBK263561],80.6122
9,COc1ccc(S(=O)(=O)Nc2cccc(C(=O)O)c2)cc1C(=O)O [CBK264069],101.024
10,CC(C)C(C(=O)Nc1ccc(S(=O)(=O)Nc2nccs2)cc1)N1C(=O)c2ccccc2C1=O (stereo not drawn) [CBK265707],85.3665
11,CCOC(=O)Nc1ccc(S(=O)(=O)Nn2cnnc2)cc1 [CBK262138],98.2472
12,Cc1cc2nnn(C[C@@H](C)NC(=O)c3ccco3)c2cc1C [CBK282366],89.7925
13,CC(=O)N(C)c1nc(-c2ccccc2)ccc1C(=O)Nc1ccc2c(c1)OCO2 [CBK106342],97.2633
14,O=C(Cc1c(Cl)cccc1Cl)Nc1ccc2[nH]ccc2c1 [CBK159664],100.411
15,CCN(CC)C(=O)CN1CCN(c2nccnc2OCc2ccc(Cl)c(Cl)c2)CC1 [CBK083081T],89.1647
16,CC(=O)c1ccc(-c2nccnc2NCc2cccc([N+](=O)[O-])c2)s1 [CBK037509],77.4505
17,Cc1cc(C(=O)NC(C)C2CC3CCC2C3)c2cnn(C(C)C)c2n1 (stereo not drawn) [CBK281652],86.7233
18,CN1CCN(CC(=O)Nc2ccc(OCc3ccccc3)cc2)CC1 [CBK264844],98.0161
19,COc1cc(/C=N/Nc2nonc2N)cc(OC)c1OC [CBK025758],68.5443
20,COc1cc(CN2CCCC3(CCN(C(=O)c4cc(F)c(F)cc4F)C3)C2)cc(OC)c1OC (stereo not drawn) [CBK131988],77.6609

row,SMILES,% of control remaining
1,CC(C)(C)OC(=O)N1CCC(N2CCc3cc(-c4ccc(S(C)(=O)=O)cc4)ccc3C2)CC1 [CBK165796],61.0961
2,CN(C)c1ccc(-c2nccnc2NS(=O)(=O)c2ccc(C(F)(F)F)cc2)cc1 [CBK050802],86.2696
3,CC(C)(C)n1cc(C(=O)N2CCNCC2c2cccc(Cl)c2)cn1 (stereo not drawn) [CBK304112],56.0284
4,CSc1ccc([C@H]2[C@H](C(=O)O)CC(=O)N2Cc2ccccc2)cc1 [CBK286934],88.6354
5,CC(=O)c1ccc(-c2nccnc2N2CCN(c3ccncc3)CC2)s1 [CBK037015],108.659
6,CCCc1nn(Cc2ccccn2)c(=O)c2cc3ccsc3n12 [CBK284229],67.9532
7,CC[C@H]1C[N@@]2CC[C@H]1C[C@@H]2CNS(=O)(=O)c1cccc2cccnc12 [CBK288747],109.372
8,O=C(Nc1ccccc1Br)C1CCCC1 [CBK092059],61.9487
9,CSCCCNC(=O)c1ccc2nc[nH]c2c1 [CBK153314],72.0219
10,COCc1cc(-c2ccc(C(=O)N3CCN(C)CC3)nc2)ccc1OCC1CCN(C(=O)OC(C)(C)C)CC1 [CBK174511],62.1024
11,CCCc1cc(C(=O)Nc2nccs2)cs1 [CBK288212],64.9613
12,Cc1c(-c2ccc(Cl)cc2Cl)nc2ccccc2c1C(=O)NCCC(c1ccccc1)c1ccccc1 [CBK262634],104.513
13,Fc1ccc(-n2nnnc2SCc2ccc(Cl)cc2)cc1Cl [CBK102075],66.3834
14,COc1ccc(CCC(=O)Nc2cccc(-c3ccc(OC4CCNCC4)cc3)c2)cc1OC [CBK131925T],89.9226
15,O=C(c1ccc(NCCCCO)nc1)N1CCC(N2CCOCC2)CC1 [CBK306521],69.2504
16,O=C(NC(=S)Nc1ccc2[nH]c(=O)[nH]c2c1)c1ccc(F)cc1 [CBK263986],83.8017
17,C=CCC1(CC=C)CCN1C(=O)c1cc(-c2c(C)nn(C)c2C)n[nH]1 [CBK282575],108.962
18,Cc1ccc(S(=O)(=O)N(CC(=O)Nc2ccccc2C)Cc2ccc(Cl)c(Cl)c2)cc1 [CBK264735],109.29
19,OCC[C@H]1CN2CCCC2CN1Cc1cccn1-c1ccccc1F (stereo partly drawn) [CBK282977],91.298
